Results from PubChem BioAssay AID757 (NMMLSC, 2007).
Screen size: about 190,000 compounds; about 520 (0.27%) were called active. The inconclusive results got no clear call from the source; some entries with a clear call stand among them for comparison.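 The calls were made as follows: active = GTP binding activity at least 20 points away from the 100% control level, either lower or higher; inconclusive = compound flagged as likely green fluorescent, judged across all proteins; inactive = the rest.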

biological target: Ras-related C3 botulinum toxin substrate 1 (Homo sapiens) (UniProt P63000); experiment: wildtype Rac1 GTP binding modulators, primary screen, biochemical, GST-Rac1 beads, flow cytometry, multiplex (AID 757); details: fluorescent GTP binding, at 10 µM, actives lie on both sides, 0 = cold GTP competed, 100 = untreated

| SMILES | GTP binding activity (% of control) |
| --- | --- |
| CC(=O)Nc1ccc(NC(=O)CSc2nnc3ccc(-c4ccc(F)cc4)nn23)cc1 | inactive: 101% |
| COc1ccc(CN(C(=O)c2cccs2)c2ccccc2)cc1 | inconclusive: 96% |
| COC(=O)CN1C(=O)S/C(=C/c2ccc(N3CCCCC3)o2)C1=O | inconclusive: 114% |
| N#CCCn1cc(C(=O)N2CCOCC2)c(-c2ccc3c(c2)OCCO3)n1 | inactive: 103% |
| C=CCSc1nc2sc(C)c(C)c2c(=O)n1N | inactive: 99% |
| Cc1ccccc1Cn1cnc2c([N+](=O)[O-])c(C)c(C)cc21 | inconclusive: 92% |
| C=CCN(C(=O)C1=NN(C2CCS(=O)(=O)C2)C(=O)CC1)c1nc(-c2ccc([N+](=O)[O-])cc2)cs1 (configuration not stated) | inactive: 95% |
| O=C(NC1CC1)c1cc(F)c(F)cc1Cl | inconclusive: 97% |
| COc1cccc(/C=N/NC(=O)COc2cccc3cccnc23)c1O | inconclusive: 97% |
| O=C(NCc1ccccc1)c1ccccc1C(=O)c1ncc[nH]1 | inactive: 100% |
| Cc1cc(-n2c(=O)c(C#N)cc3c(=O)n4cccc(C)c4nc32)no1 | inconclusive: 105% |
| COc1cc(/C=N/NC(=O)Nc2cccc3nsnc23)cc(OC)c1OC | active: 76% |
| CC(=O)N1CCN(c2ccc(NC(=O)c3ccc(C)cc3)cc2)CC1 | inconclusive: 105% |
| Cc1ccc(Nc2nnc(SCC(=O)NCCN3C(=O)CSC3=O)s2)cc1C | inactive: 94% |
| CC(=O)Nc1ccc(OCc2nnc(-c3ccc(Cl)cc3)o2)cc1 | inconclusive: 91% |
| COc1ccc(C2N(c3ccccc3)CCN2c2ccccc2)cc1O | inactive: 103% |
| NC(=O)c1ccc2nc(NC(=O)c3ccc(N)cc3)sc2c1 | inconclusive: 92% |
| CCOc1ccccc1/C=N/NC(=O)CNC(=O)c1cccs1 | inactive: 98% |
| CCNC(=O)COc1ccc(Br)cc1Cl | inconclusive: 105% |
| COc1ccc(CCn2c(C)cc(C(=O)CSc3nnnn3-c3ccccc3)c2C)cc1 | inconclusive: 105% |
| O=C(NCCNc1ccc([N+](=O)[O-])cc1C(F)(F)F)c1ccc(F)cc1 | inconclusive: 104% |
| COc1ccc(F)cc1C(=O)C1CCCN(Cc2ccc(Oc3ncccn3)cc2)C1 (configuration not stated) | inconclusive: 101% |
| Cc1ccc(NC(=O)COC(=O)c2ccc([N+](=O)[O-])o2)cc1S(=O)(=O)N1CCCCCC1 | inactive: 100% |

| SMILES | GTP binding activity (% of control) |
| --- | --- |
| O=C(CNc1ccc2c(c1)OCO2)N/N=C\c1ccccc1Cl | inconclusive: 90% |
| CCc1ccc(OCC(=O)NC(NC(=S)Nc2ccc(Cl)cc2)C(Cl)(Cl)Cl)cc1 (configuration not stated) | inactive: 103% |
| O=C(COC(=O)CCc1ccc(S(=O)(=O)N2CCOCC2)cc1)NC(=O)NC1CCCCC1 | inactive: 100% |
| Cc1ccc(C(=S)N2CCN(Cc3ccccc3)CC2)s1 | inconclusive: 93% |
| CC(C)Cn1c(N)c(C(=O)COC(=O)[C@@H]2CCCN2C(=O)c2cccs2)c(=O)n(C)c1=O | inactive: 95% |
| O=C(Nn1cnc2ccccc2c1=O)c1ccc([N+](=O)[O-])cc1Cl | inactive: 96% |
| Cc1c(Cl)cccc1NS(=O)(=O)c1ccc2c(c1)C1C=CCC1C(c1ccc(C(=O)O)cc1)N2 (configuration not stated) | inactive: 84% |
| CCOC(=O)c1cc(C)n(-c2ccc(OC)c(OC)c2)c1C | inconclusive: 87% |
| O=C(Nc1nc(-c2cccs2)cs1)c1cc2ccccc2oc1=O | inconclusive: 81% |
| COc1ccc(-c2nnc3ccc(SCC(=O)N4CCCCC4)nn23)cc1OC | inconclusive: 92% |
| COc1cc(CNC(=O)c2cccc(COc3ccc(Cl)cc3)c2)cc(OC)c1 | inactive: 101% |
| O=C1S/C(=C/c2ccc(N3CCOCC3)o2)C(=O)N1Cc1ccc(F)cc1 | inconclusive: 111% |
| O=S(=O)(Cc1cc(N2CCOCC2)nc(-c2ccccn2)n1)c1ccccc1 | inconclusive: 94% |
| CNC(=S)NNC(=O)Cc1ccc(O)cc1 | inconclusive: 106% |
| N#CCCN1CCN(C(=S)c2ccc(-c3cc(Cl)ccc3Cl)o2)CC1 | inconclusive: 92% |
| Cc1cc(N2CCCC2=O)c(N)cc1N | inconclusive: 86% |
| O=C(Nc1ccccc1Cl)N1CCN(c2ccc3nnc(-c4ccc(F)cc4)n3n2)CC1 | inconclusive: 94% |
| O=C(NCCCN1CCOCC1)c1ccccc1NS(=O)(=O)c1ccc(Br)cc1 | inactive: 100% |
| CCCCNC(=S)Nc1ccc(-c2nc3ccc(C)cc3s2)cc1 | inconclusive: 108% |
| CC(=O)c1c(C)[nH]c(C(=O)O)c1C | inconclusive: 94% |
| CCN=C1SC(C(=O)Nc2cccc(C)c2)CC(=O)N1CC (configuration not stated) | inconclusive: 107% |
| O=C(Nc1ccc(Cl)cc1)N1CCN(c2ccc3nnc(-c4ccc(F)cc4)n3n2)CC1 | inconclusive: 88% |
| CC(C)c1ccc(CN2CC(C(=O)Nc3ccccc3)CC2=O)cc1 (configuration not stated) | inconclusive: 90% |

| SMILES | GTP binding activity (% of control) |
| --- | --- |
| O=C(Cn1nnc2c(cnn2-c2ccccc2)c1=O)NCc1cccs1 | inconclusive: 88% |
| Cc1ccc(C(=O)Nc2cccc([N+](=O)[O-])c2)cc1S(=O)(=O)Nc1ccc(C(=O)O)cc1 | inconclusive: 86% |
| O=C(Nc1ccccc1F)Nc1ccccc1OC(F)F | inactive: 100% |
| Cc1ccc(NC(=O)CO/N=C/c2ccc(N(C)C)cc2)cc1 | inconclusive: 114% |
| O=c1c2ccccc2nc(SCc2nc(-c3ccccc3)no2)n1-c1ccc(F)cc1 | inconclusive: 104% |
| CCOCc1[nH]c(=S)[nH]c(=O)c1Cc1ccc(OC(C)C)cc1 | inconclusive: 93% |
| O=C(NCc1ccccn1)C(=O)C1C(=O)Nc2ccccc21 (configuration not stated) | inactive: 98% |
| Cc1nc(NC(=O)CSc2nnc(-c3ccc4c(c3)OCO4)o2)c(Cl)cc1Cl | inconclusive: 102% |
| Cc1ccccc1NC(=O)OCc1cccnc1Sc1ccc(Cl)cc1 | inconclusive: 92% |
| CSCC[C@@H](C(=O)NCc1cccs1)N1Cc2ccccc2C1=O | inconclusive: 108% |
| CCC(=O)N1CCN(c2ccc(NC(=S)NC(=O)c3ccc(OC)c([N+](=O)[O-])c3)cc2)CC1 | inconclusive: 97% |
| O=c1/c(=C/c2ccc(CNS(=O)(=O)c3ccccc3)o2)sc2n1CCN=2 | active: 64% |
| CCn1c2ccccc2c2cc(NC(=S)N3CCOCC3)ccc21 | inconclusive: 106% |
| Cc1cc(N2CCOCC2)nc2ccc(NC(=O)CCC(=O)N3CCCC(C)C3)cc12 (configuration not stated) | inconclusive: 105% |
| O=C(CSc1nc(O)c(Cc2ccccc2)c(=O)[nH]1)Nc1nc2c(s1)CCCC2 | inconclusive: 94% |
| COc1c(Br)cc2c(C)c(C(=O)O)oc2c1Br | inconclusive: 93% |
| OC(CON=C1c2ccccc2-c2ccccc21)CN1CCNCC1 (configuration not stated) | inconclusive: 97% |
| O=C(CSc1cccc[n+]1[O-])Nc1cccc(Oc2ccccc2)c1 | inactive: 103% |
| Cc1ccc(F)cc1CNC(=O)c1cc(COc2ccc3ncccc3c2)on1 | inconclusive: 101% |
| O=c1c2c3c(sc2n(CCN2CCOCC2)c(=O)n1Cc1ccco1)CCCCC3 | inconclusive: 105% |
| O=c1cc(CSc2nnnn2-c2ccccc2)nc2sccn12 | inconclusive: 92% |
| COc1ccc(-c2nnn(CC(=O)NCc3ccc4c(c3)OCO4)n2)cc1OC | inconclusive: 92% |
| CCCC/C(O)=C1\C(=O)CC(C)(C)CC1=NCCCCCC(=O)O | inconclusive: 88% |

| SMILES | GTP binding activity (% of control) |
| --- | --- |
| Cc1ccccc1C(=O)Nc1cccc(C(=O)N/N=C/c2cc(Cl)cc([N+](=O)[O-])c2O)c1 | inactive: 81% |
| CC(=O)c1c(C)[nH]c(C(=O)N2CCc3ccccc3C2)c1C | inconclusive: 127% |
| CC(=O)N1CCc2cc(S(=O)(=O)NC(C(=O)NCc3ccccc3)C(C)C)ccc21 (configuration not stated) | inconclusive: 103% |
| CCOc1ccc(NC(=S)N(CC)Cc2ccccc2)cc1 | inactive: 99% |
| COc1ccc(/C=C2\N=C(SC)SC2=O)cc1OC | inactive: 81% |
| COc1cc(C(=O)OCC(=O)Nc2cc(C)on2)cc(OC)c1OC | inconclusive: 102% |
| COc1ccc(CC(=O)Nc2ccc(-c3ccc4nnc(C)n4n3)cc2)cc1OC | inactive: 89% |
| Cc1ccc(S(=O)(=O)N2CCN(c3nc(C)nc4sc5c(c34)CCC(C)C5)CC2)cc1 (configuration not stated) | inconclusive: 91% |
| COC(=O)C1CCN(CC(N)=O)CC1 | inconclusive: 109% |
| CCOC(=O)c1c(NC(=O)C2CC(Cl)=CCC2C(=O)O)sc2c1CC(C)(C)OC2 (configuration not stated) | inconclusive: 92% |
| COC(=O)c1nnn(CC(=O)NC(=O)Nc2cccc(Cl)c2C)c1C(=O)OC | inactive: 91% |
| CCN(CC)c1ccc(NS(=O)(=O)c2ccc(OC)cc2)cc1 | inactive: 99% |
| Cc1cccc(C)c1OCC(=O)Nc1ccc(N2CCOCC2)cc1 | inactive: 97% |
| O=C(NCc1n[nH]c(=S)n1-c1ccc(Br)cc1)c1ccc(S(=O)(=O)N2CCOCC2)cc1 | inactive: 99% |
| Cc1ccccc1OCC(=O)N1N=C(c2cccnc2)CC1(O)C(F)(F)F (configuration not stated) | inconclusive: 103% |
| FC(F)c1nc2ccccc2[nH]1 | inactive: 101% |
| CC1CCC(NC(=O)C2c3ccccc3C(=O)N2Cc2ccc3c(c2)OCO3)CC1 (configuration not stated) | inactive: 99% |
| CC(C)C(C(=O)O)N1C(=O)/C(=C/c2cccn2C)SC1=S (configuration not stated) | inconclusive: 94% |
| CCOc1ccc2oc(-c3ccccc3)c(C(=O)N3CCN(C)CC3)c2c1 | inconclusive: 104% |
| COCCCNC(=O)C12CCC(C)(C(=O)C1)C2(C)C (configuration not stated) | inconclusive: 91% |
| CC1=C2C(=O)OC(c3ccoc3)C2(C)CCC1 (configuration not stated) | inconclusive: 102% |
| Cc1coc(=N)n1CC(=O)c1ccc(Cl)cc1 | inactive: 99% |
| Cc1ccc(C=NCc2ccncc2)c(O)c1 | inconclusive: 108% |
